Assay [1] has as its target Aβ1-42 fibers (human). Put plainly: SPR. On the technique in general: SPR reads the build-up and loss of mass on a sensor chip optically.
Assay [2] deals with Aβ1-40 fibers (human). Put plainly: SPR.

Substitutions are numbered along the chain they refer to.

B1: MS-R 3 Fab (antibody, V domains shown)
VH: [not shown - about 100 residues]LTHYARYYRYFDVWGQGTLVTVSS
VL: DIVLTQSPATLSLSPGERATLSCRASQSVSSSYLAWYQQKPGQAPRLLIYGASSRATGVPARFSGSGSGTDFTLTISSLEPEDFAVYYCQQVYNPPVTFGQGTKVEIKR
As a reminder, the Kd is the concentration at which binding is half-saturated. Take B1: the values for the dissociation constant Kd in assay [1] and in assay [2] were 1300 nM and 930 nM, respectively.

B2: MS-R 8 Fab (antibody, V domains shown)
VH: [not shown - about 100 residues]LLSRGYNGYYHKFDVWGQGTLVTVSS
VL: B1 VL with V86T, V92L, Y93S, N94S, P95F, V97P
With B2, the Kd worked out at 1000 nM in assay [1] and 850 nM in assay [2].

The values above are taken from patent US7794719 (dated 2010).
